Measured values published in the supplement of paper PMC7125110.
± gives the standard error. This sample is rich in variants without activity.

B1: glmS ribozyme (parent)
chain: AUAAAAGCGCCAGAACUACAGAAAUGUAGUUGACGAGGAGGAGGUUUAUCGAAUUUUCGGCGGAUGCCUCCAAA

Key:
Conditions in all cases: with glucosamine-6-phosphate
glucosamine-6-phosphate [1] = variants of: B1; assay: self-cleavage kobs at 640 uM GlcN6P; higher = faster cleavage; RNA array
Outline: (§1)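 kcat and KM were obtained from weighted Michaelis–Menten fits across concentrations of kobs values. Those came from one- or two-exponential decay fits to per-tile medians normalised to baseline and to non-cleaving reference variants. The variants were barcoded ribozymes transcribed in situ by E. coli RNA polymerase on sequenced MiSeq chips and tracked through a hybridised Cy3 probe at 37 °C, with 40 μM to 10 mM glucosamine-6-phosphate in HEPES/KCl/Mg(OAc)2 buffer flowed in.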

glucosamine-6-phosphate [2] = variants of: B1; assay: self-cleavage kobs at 2500 uM GlcN6P; higher = faster cleavage; RNA array
Outline: as §1

glucosamine-6-phosphate [3] = variants of: B1; assay: self-cleavage kobs at 10000 uM GlcN6P; higher = faster cleavage; RNA array
Outline: as §1

glucosamine-6-phosphate [4] = variants of: B1; assay: self-cleavage kobs at 160 uM GlcN6P; higher = faster cleavage; RNA array
Outline: as §1

Variant	self-cleavage kobs at 640 uM GlcN6P (glucosamine-6-phosphate [1])	self-cleavage kobs at 2500 uM GlcN6P (glucosamine-6-phosphate [2])	self-cleavage kobs at 10000 uM GlcN6P (glucosamine-6-phosphate [3])	self-cleavage kobs at 160 uM GlcN6P (glucosamine-6-phosphate [4])
U30A A48G G51A G60U	< 1e-05 s⁻¹	< 1e-05 s⁻¹		
G29U A36G U57G	< 1e-05 s⁻¹			
A33C A39G G40U U46C C50U	< 1e-05 s⁻¹			
U31A C34A	< 1e-05 s⁻¹		< 1e-05 s⁻¹	
U31C G43C C61U	< 1e-05 s⁻¹	< 1e-05 s⁻¹		
U30C C58G C68A	9.15e-05 ± 3.9e-05 s⁻¹	7.09e-05 ± 1.9e-05 s⁻¹		
G29A G32A G35C G38A A64U	< 1e-05 s⁻¹			
U30C U47A C61G	< 1e-05 s⁻¹			
U30A U47A G60U G63U	< 1e-05 s⁻¹			
G29A G43U A48C	< 1e-05 s⁻¹		< 1e-05 s⁻¹	
U30C C34A	< 1e-05 s⁻¹		< 1e-05 s⁻¹	
G32C G37U G51C	< 1e-05 s⁻¹			
A33C G35C C68G	< 1e-05 s⁻¹			
U30C U31A U45A	0.00111 ± 0.00052 s⁻¹	0.000661 ± 0.0003 s⁻¹		
G29U G32A G37U G66A	< 1e-05 s⁻¹			< 1e-05 s⁻¹
G32U G35A U46G U65C C68A	< 1e-05 s⁻¹			< 1e-05 s⁻¹
U30G G41A U57C C67U	< 1e-05 s⁻¹			
A24C U30C G35C G40C U57A C58G	< 1e-05 s⁻¹			< 1e-05 s⁻¹
G29C A33G U46G	< 1e-05 s⁻¹			
G32C U49C G51U C58U	< 1e-05 s⁻¹			< 1e-05 s⁻¹
A33C G38C G51C A64C	< 1e-05 s⁻¹		< 1e-05 s⁻¹	
G29A U31C C34U	< 1e-05 s⁻¹	< 1e-05 s⁻¹		< 1e-05 s⁻¹
G32U G41A G59C	< 1e-05 s⁻¹			
G32C G40U A42U	< 1e-05 s⁻¹			

Variant	self-cleavage kobs at 640 uM GlcN6P (glucosamine-6-phosphate [1])	self-cleavage kobs at 2500 uM GlcN6P (glucosamine-6-phosphate [2])	self-cleavage kobs at 10000 uM GlcN6P (glucosamine-6-phosphate [3])	self-cleavage kobs at 160 uM GlcN6P (glucosamine-6-phosphate [4])
G32C C61G U65G	< 1e-05 s⁻¹	< 1e-05 s⁻¹		
U31A G40U C67G	< 1e-05 s⁻¹			
C16U U31G C34U	< 1e-05 s⁻¹			
U30A U46C A52U G59A	< 1e-05 s⁻¹	< 1e-05 s⁻¹		< 1e-05 s⁻¹
U30A G62U C67G	< 1e-05 s⁻¹			
A33C C34A A64U	< 1e-05 s⁻¹	< 1e-05 s⁻¹		
G32C C34U A39U G66A	< 1e-05 s⁻¹	< 1e-05 s⁻¹		
U31A A36C A39C U54G G66U	< 1e-05 s⁻¹	< 1e-05 s⁻¹		
A33C C34A U57G	< 1e-05 s⁻¹			
U31C G40U C67U	< 1e-05 s⁻¹			
G29U G38C A42G	< 1e-05 s⁻¹	< 1e-05 s⁻¹		
U31C A42U A53C C61U C68A	< 1e-05 s⁻¹			
U31C U49G	2.25e-05 ± 9.3e-06 s⁻¹	4.27e-05 ± 7.7e-06 s⁻¹	6.33e-05 ± 9.1e-06 s⁻¹	
U31G G35C G51U	< 1e-05 s⁻¹			
U30G G37C A64U	< 1e-05 s⁻¹			
G32U A39G C71U	0.000114 ± 3.4e-05 s⁻¹	0.00038 ± 0.0001 s⁻¹		
U31G U56G C61A	< 1e-05 s⁻¹			
G29A G40A U55A A64U	< 1e-05 s⁻¹			
G32C G40U U65G	< 1e-05 s⁻¹	< 1e-05 s⁻¹		< 1e-05 s⁻¹
U30G G51A C61U	< 1e-05 s⁻¹			< 1e-05 s⁻¹
A33C A52G U65G	< 1e-05 s⁻¹	< 1e-05 s⁻¹		
G32C A48G C70G	< 1e-05 s⁻¹		< 1e-05 s⁻¹	
U30A C34A G35A A39U	< 1e-05 s⁻¹			
G32U A52U C68U	< 1e-05 s⁻¹	< 1e-05 s⁻¹		

Variant	self-cleavage kobs at 640 uM GlcN6P (glucosamine-6-phosphate [1])	self-cleavage kobs at 2500 uM GlcN6P (glucosamine-6-phosphate [2])	self-cleavage kobs at 10000 uM GlcN6P (glucosamine-6-phosphate [3])	self-cleavage kobs at 160 uM GlcN6P (glucosamine-6-phosphate [4])
U31C G43A C70U	< 1e-05 s⁻¹			
U30G A33C G40C U54A A64C	< 1e-05 s⁻¹	< 1e-05 s⁻¹		
U30C G37U A39C A48U	< 1e-05 s⁻¹			
C16U U46C U55A C70U	0.00101 ± 0.00034 s⁻¹	0.00219 ± 0.0006 s⁻¹	0.00226 ± 0.00047 s⁻¹	
U30A C67G	5.03e-05 ± 5.9e-06 s⁻¹	9.16e-05 ± 8.4e-06 s⁻¹	0.00015 ± 1.3e-05 s⁻¹	
A33C G35A G41A	< 1e-05 s⁻¹	< 1e-05 s⁻¹		
G29C U49C C50G G51U U65C	< 1e-05 s⁻¹	< 1e-05 s⁻¹		
G32U C34U C68U	< 1e-05 s⁻¹		< 1e-05 s⁻¹	
G32U G44U A53G	< 1e-05 s⁻¹			
G32U C61U G63A	< 1e-05 s⁻¹	< 1e-05 s⁻¹		
G32U A42G G66U C68U	< 1e-05 s⁻¹			
G21U U69G	6.25e-05 ± 1.4e-05 s⁻¹	9.89e-05 ± 2e-05 s⁻¹		
G29C C34G A36C	< 1e-05 s⁻¹	< 1e-05 s⁻¹		
G32U G35A G63A U65G C70U	< 1e-05 s⁻¹	< 1e-05 s⁻¹		< 1e-05 s⁻¹
G32C G59U	< 1e-05 s⁻¹	< 1e-05 s⁻¹		< 1e-05 s⁻¹
G32U A36G U46A U55C	< 1e-05 s⁻¹			
G32C G44C A48C C67G	< 1e-05 s⁻¹	< 1e-05 s⁻¹		
G32C A33G U47A U54C A64C C71U	< 1e-05 s⁻¹	< 1e-05 s⁻¹		
G32U A42C G51C C67U	< 1e-05 s⁻¹			
G32U G43U G60C	< 1e-05 s⁻¹			
G29C U30G A42U G62A	< 1e-05 s⁻¹	< 1e-05 s⁻¹		
G32A G35U A53U	< 1e-05 s⁻¹			
A33C G40A	< 1e-05 s⁻¹			< 1e-05 s⁻¹
G29U G37U G40A G44U A52U C67G	< 1e-05 s⁻¹			

Variant	self-cleavage kobs at 640 uM GlcN6P (glucosamine-6-phosphate [1])	self-cleavage kobs at 2500 uM GlcN6P (glucosamine-6-phosphate [2])	self-cleavage kobs at 10000 uM GlcN6P (glucosamine-6-phosphate [3])	self-cleavage kobs at 160 uM GlcN6P (glucosamine-6-phosphate [4])
G29C U31C G37A	< 1e-05 s⁻¹			
G32U U45G C70A	< 1e-05 s⁻¹			< 1e-05 s⁻¹
U31C U56G G60C	< 1e-05 s⁻¹		< 1e-05 s⁻¹	< 1e-05 s⁻¹
U30C A39U A52U	< 1e-05 s⁻¹			
A33C A48U U49C U55A	< 1e-05 s⁻¹	< 1e-05 s⁻¹	< 1e-05 s⁻¹	< 1e-05 s⁻¹
U31G U45C A53G	0.000175 ± 3.2e-05 s⁻¹			
U30G A33C C34A G44U C68U	< 1e-05 s⁻¹	< 1e-05 s⁻¹		
G32C G60A C70G	< 1e-05 s⁻¹			
U31G G51C U65G	< 1e-05 s⁻¹	< 1e-05 s⁻¹		
U30C G32A	0.000321 ± 4.3e-05 s⁻¹	0.000932 ± 8.8e-05 s⁻¹	0.00181 ± 0.00026 s⁻¹	0.000106 ± 1.2e-05 s⁻¹
G32U U46A G63A	< 1e-05 s⁻¹			
U30A G43U U55A	< 1e-05 s⁻¹	< 1e-05 s⁻¹		< 1e-05 s⁻¹
G29U G37C A42C U46A	< 1e-05 s⁻¹			< 1e-05 s⁻¹
U31A U69G	6.47e-05 ± 1.5e-05 s⁻¹	5.62e-05 ± 1.2e-05 s⁻¹	4.26e-05 ± 9.9e-06 s⁻¹	4.7e-05 ± 1.3e-05 s⁻¹
G32U A36G U56C	< 1e-05 s⁻¹			
U31G G37C G38C	< 1e-05 s⁻¹	< 1e-05 s⁻¹		
U30C C67U	3.56e-05 ± 7.9e-06 s⁻¹	8.48e-05 ± 1.8e-05 s⁻¹	9.05e-05 ± 1e-05 s⁻¹	3.33e-05 ± 1.3e-05 s⁻¹
A33C G35U G38U G44U C58U G60U	< 1e-05 s⁻¹	< 1e-05 s⁻¹		< 1e-05 s⁻¹
G21U C71G	0.000218 ± 3.9e-05 s⁻¹	0.000294 ± 5.9e-05 s⁻¹		0.000226 ± 5.1e-05 s⁻¹
U30G U46C U47G	8.33e-05 ± 2.2e-05 s⁻¹			
G29A G37A	0.000124 ± 3.6e-05 s⁻¹	0.000156 ± 5.7e-05 s⁻¹		
G32C G35U A64U U69A	< 1e-05 s⁻¹			< 1e-05 s⁻¹
U30C C58G	< 1e-05 s⁻¹			
U31G U65G	0.000375 ± 5.5e-05 s⁻¹	0.000924 ± 0.00017 s⁻¹	0.00184 ± 0.00019 s⁻¹	9.35e-05 ± 1.7e-05 s⁻¹

Variant	self-cleavage kobs at 640 uM GlcN6P (glucosamine-6-phosphate [1])	self-cleavage kobs at 2500 uM GlcN6P (glucosamine-6-phosphate [2])	self-cleavage kobs at 10000 uM GlcN6P (glucosamine-6-phosphate [3])	self-cleavage kobs at 160 uM GlcN6P (glucosamine-6-phosphate [4])
G29C G37C C58A	< 1e-05 s⁻¹			
U30C C58U C70U	5.85e-05 ± 2.1e-05 s⁻¹	3.95e-05 ± 1.9e-05 s⁻¹		
A33C A53U G59A U69G	0.000208 ± 8.8e-05 s⁻¹			
G32C C34A G37U U55C	< 1e-05 s⁻¹	< 1e-05 s⁻¹		
U31A G51A	< 1e-05 s⁻¹	< 1e-05 s⁻¹	< 1e-05 s⁻¹	< 1e-05 s⁻¹
U30G A33U G43U G59U	< 1e-05 s⁻¹	< 1e-05 s⁻¹		< 1e-05 s⁻¹
U31C A42U G44A	< 1e-05 s⁻¹	< 1e-05 s⁻¹		
U31A U49G C50A U55G U56A	< 1e-05 s⁻¹	< 1e-05 s⁻¹	< 1e-05 s⁻¹	< 1e-05 s⁻¹
G32C G44U U56C U65C	< 1e-05 s⁻¹	< 1e-05 s⁻¹	< 1e-05 s⁻¹	
U30A C34G A42C	< 1e-05 s⁻¹	< 1e-05 s⁻¹		< 1e-05 s⁻¹
G32A G38C A52U U56A C70G	< 1e-05 s⁻¹			
C16U A64G U65A C70U	0.00104 ± 0.00025 s⁻¹	0.000964 ± 0.00024 s⁻¹		8.56e-05 ± 2.7e-05 s⁻¹
G32U G38C C68U	< 1e-05 s⁻¹			
U31A A33G G40A C50U G60U	< 1e-05 s⁻¹			
U31A A42U G63U	< 1e-05 s⁻¹	< 1e-05 s⁻¹	< 1e-05 s⁻¹	
G29U C34U G41U U54A	< 1e-05 s⁻¹	< 1e-05 s⁻¹		
U31C G59C G66U	< 1e-05 s⁻¹		< 1e-05 s⁻¹	
G29C A36G	< 1e-05 s⁻¹	< 1e-05 s⁻¹	< 1e-05 s⁻¹	
U31C U65C	3.88e-05 ± 1.4e-05 s⁻¹	4.75e-05 ± 9.5e-06 s⁻¹	4.78e-05 ± 6.9e-06 s⁻¹	
G32A U65A C71U	5.38e-05 ± 1.4e-05 s⁻¹	9.54e-05 ± 2.4e-05 s⁻¹		
G32C A39U U55C U65A	< 1e-05 s⁻¹	< 1e-05 s⁻¹		< 1e-05 s⁻¹
G21U C70G	0.000253 ± 5.1e-05 s⁻¹	0.000154 ± 3.9e-05 s⁻¹	9.23e-05 ± 2.3e-05 s⁻¹	
